Experimental data taken from PubChem BioAssay AID1963576 (National Center for Advancing Translational Sciences (NCATS), 2024).
In all, about 46,000 compounds went through this assay and about 60 (0.1%) were called active. About 3% were inconclusive and are not listed. Calls come from the whole dose curve; as a rule, active = well fitted inhibition curve with a large enough effect; inconclusive = small, poorly fitted or top-dose-only effect; inactive = no such curve, though single readings can be large or run the other way. The list shows a part of the results.

assay: Primary qHTS assay for Inhibitors of ovarian cancer metastasis using an organotypic tumor microenvironment (TME) model.; note: nearly all actives have a fitted effect of over 65% in size;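 for activity change, negative = inhibition: plate controls were DMSO wells for no effect and tomatine positive control wells for full effect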; conditions: SKOV3ip1-GFP adhesion/invasion on 3D omental model, fluorescence; series mostly up to 45.8 µM; activity change, negative = inhibition: at the top concentration
Outline: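 qHTS, 4-pt dose (0.36-46 umol/L); SKOV3ip1-GFP, 1,200 cells/well, no FBS; primary omental fibroblast/mesothelial co-culture 48 h pre-grown; 2 h RT + 16 h 37 C; PBS wash, 4% PFA; GFP count 488/509 nm.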

Activity change, negative = inhibition, inactive:
Cc1ccnc(NS(=O)(=O)c2ccc(NC(=O)c3cc(=O)c4ccc(C)c(C)c4o3)cc2)n1 5.49%
Cc1ccc2nc(N3CCN(C(=O)C4COc5ccccc5O4)CC3)sc2c1 (stereo unspecified) -10.5%
COc1ccc(Cl)cc1NC(=O)c1c(C(=O)Nc2cccc(C)c2C)sc2nc(C)cc(=O)n12 28.6%
Cc1nn(Cc2ccccc2)c(C)c1NC(=O)c1cc(C(C)C)on1 3.57%
CN(C)CCNC(=O)Cc1ccc(NC(=O)N2CCCCc3ccccc32)cc1 7.32%
CCOC(=O)c1sc(NC(=O)c2nc(SCC)ncc2Cl)c(C(=O)OCC)c1C -12.3%
Cc1cc(Nc2cc(NC(=O)c3c(Cl)cccc3Cl)ccn2)nc(N)n1 44.6%
COCCCn1c(=N)c(S(=O)(=O)c2ccccc2)cc2c(=O)n3cccc(C)c3nc21 1.31%
Cc1ccc(C2c3cccn3CCN2S(=O)(=O)c2ccc([N+](=O)[O-])cc2)cc1 (stereo unspecified) -4.67%
Cc1ccccc1OCc1nc2c3cnn(-c4ccccc4Br)c3ncn2n1 -2.69%
COCCOc1nc(-c2ccc(Cl)c(Cl)c2)n(-c2ccc(NC(=O)CCl)cc2)n1 20.4%
O=C(NCc1ccc(F)cc1)c1ccc(CS(=O)(=O)c2ccc(Cl)cc2)o1 -1.32%
COc1cccc(CNC(=O)CSc2nc(=O)[nH]c3c2CCCC3)c1 -7.33%
Cc1ccc2c(=O)cc(C(=O)Nc3nnc(CC(C)C)s3)oc2c1C -5.98%
COc1ccc(CCNC(=O)Cn2cc(S(=O)(=O)Cc3ccccc3F)c3ccccc32)cc1OC -2.47%
CC1CCN(S(=O)(=O)c2ccc(N3CCCCS3(=O)=O)cc2)CC1 3.03%
Cc1cccc(Cn2c(=O)n(CCC(=O)NCc3ccc4c(c3)OCO4)c(=O)c3sccc32)c1 -8.25%
O=C(CC1N=C2c3ccccc3N=C(SCC(=O)Nc3cccc(Cl)c3)N2C1=O)NCc1cccs1 (stereo unspecified) -7.09%
CCn1c(SCC(=O)Nc2ccc(C)cc2Br)nnc1-c1nonc1NC(C)=O -14.6%
CCc1ccc(NC(=O)c2ccc3c(c2)N(Cc2ccc(C)cc2)CCS3)cc1 -5.31%
Cc1ccc(C)n1-c1nnc(N2CCC(C(=O)Nc3ccccc3Br)CC2)s1 -12.8%
CCCN1CCc2nc(N3CCN(CC)CC3)ncc2C1 1.79%
Cc1ccc(OCCn2c(CNc3cccc(C)c3)nc3ccccc32)cc1 5.76%
CCc1ccccc1N(C)C(=O)C1CCCN(c2ncnc3onc(-c4ccc(F)cc4)c23)C1 (stereo unspecified) 8.2%
CCCCOC(=O)c1ccc(NC(=O)c2cc(-c3ccccc3)on2)cc1 4.36%
CCOc1cccc(C(=O)Nc2c(C(=O)c3ccc(OC)cc3)oc3ccccc23)c1 8.54%
O=C(CN(c1ccc(Cl)c(C(F)(F)F)c1)S(=O)(=O)c1ccccc1)N1CCc2ccccc2C1 9.19%
Cc1ccc(NC(=O)c2sc(-n3nc(C)c(CCC(C)C)c3C)nc2C)cc1C 0.827%
Cc1nc2ccn(Cc3cccs3)c(=O)c2cc1C(=O)N1CCN(c2ccc(F)cc2)CC1 -8.34%
CN1c2cc(Cl)ccc2-c2nc(SCC(=O)Nc3ccc(F)cc3F)ncc2S1(=O)=O -6.91%
CCOC(=O)c1cnc2c(C)c(Cl)ccc2c1Nc1ccc(C)cc1C 2.82%
CC1=C(C(=O)Nc2cccnc2)C(c2ccc(F)cc2)n2nc(SCc3ccccc3F)nc2N1 (stereo unspecified) -5.97%
O=C(NC1CCCC1)c1ccc(CSc2nc3ccncc3n2Cc2ccccc2F)cc1 0.162%
CCOC(=O)N1CCc2c(sc(NCc3ccc(OCC)cc3)c2C(=O)Nc2ccc(OC)cc2OC)C1 0.319%
COc1ccc(OC2CCN(S(=O)(=O)c3ccc(OC)cc3)CC2)cc1 -18.2%
Clc1ccc(-c2noc3ncnc(NCCCN4CCN(c5ccccc5)CC4)c23)cc1 3.46%
CCn1cc(C(=O)O)c(=O)c2cc(F)c(N3CCNCC3)nc21 -31.7%
CCOC(=O)C1CCCN(C(=O)C2CCN(c3nnc(C)c4c(C)n(-c5ccccc5)nc34)CC2)C1 (stereo unspecified) 3.49%
COc1ccccc1C(=O)NCc1ccc2c(c1)CCN2C(=O)c1ccncc1 6.42%
CCc1ccc(CNC(=O)C(CC)n2ccc3cc(S(=O)(=O)N4CCCCC4)ccc32)cc1 (stereo unspecified) -3.09%
Cc1ccc(C)c(N2CCN(C(=O)C3CCN(S(=O)(=O)c4cn(C)cn4)CC3)CC2)c1 8.75%
CCc1ccccc1Nc1nn2c(=O)c3ccc(C(=O)NCc4cccs4)cc3nc2s1 -19.3%
COc1ccc(N2CCN(C(=O)C3CCN(S(=O)(=O)c4cnc[nH]4)CC3)CC2)cc1 -23.2%
Cc1cccc(C(=O)Nc2cccc(C(=O)OCc3cc(=O)n4c5c(sc4n3)CCCC5)c2)c1 -2.72%

outcome, inactive:
CCOC(=O)c1cc(-c2ccc(C)cc2)n(CC(=O)Nc2cccc(C(C)=O)c2)c1C
CC1(C)CC(=O)c2cc(C(=O)Nc3ccc(Br)cc3)c(=O)n(-c3ccc(Cl)cc3)c2C1
COc1ccc(Nc2oc(/C=C/c3ccc(F)cc3)nc2C#N)cc1
CCn1cc2nc(SCc3cc(C)ccc3C)n(Cc3ccc(C)cc3)c(=O)c2n1
Cc1oc(-c2ccccc2F)nc1Cn1c(SCc2ccccc2F)nc2ccncc21
COc1ccccc1N1CCN(C(=O)CCSCc2ccccc2F)CC1
CCn1ccc2cc(S(=O)(=O)N3CCCN(C(=O)Nc4ccccc4C(F)(F)F)CC3)ccc21
CCOc1ccc(S(=O)(=O)N(CC(=O)NCCSCc2ccc(C)cc2)c2ccccc2)cc1
COc1ccc2c(c1)Cc1sc(NC(=O)c3ccccc3Br)nc1-2
CS(=O)(=O)NCC(c1ccco1)N1CCN(c2ccccc2)CC1 (stereo unspecified)
COc1ccc(N2Cc3cccc(C(=O)Nc4ccc(C(C)C)cc4)c3C2=O)cc1
COc1ccccc1CNc1cc(-c2ccccc2)nc2nncn12
CCN(C(=O)c1cc2c(Cl)nc3ccccc3c2s1)c1cccc(Cl)c1
COc1cc(NC(=O)CN(C)S(=O)(=O)c2ccc3[nH]c4c(c3c2)CCCC4)cc(OC)c1OC
Cc1cc(NC(=O)CSc2nc3c([nH]c4ccccc43)c(=O)n2-c2cccc(Cl)c2)no1
COc1ccccc1C(=O)NCc1ccc2c(c1)CCN2C(=O)c1cccc(C)c1
CCOC(=O)Cn1c(=O)oc2cc(S(=O)(=O)Nc3cc(OC)cc(OC)c3)ccc21
